# The list shows a part of the results.
# B1: Dectin2 (Homo sapiens), Q6EIG7 (protein)
# chain: MMQEQQPQSTEKRGWLSLRLWSVAGISIALLSACFIVSCVVTYHFTYGETGKRLSELHSYHSSLTCFSEGTKVPAWGCCPASWKSFGSSCYFISSEEKVWSKSEQNCVEMGAHLVVFNTEAEQNFIVQQLNESFSYFLGLSDPQGNNNWQWIDKTPYEKNVRFWHLGEPNHSAEQCASIVFWKPTGWGWNDVICETRRNSICEMNKIYL
# Tests used:
# [1] = biological target: Neu5Gc(a2-8)Neu5Gc(a2-6)Gal(b1-4)GlcNAc; experiment: glycan array binding signal (z-score within array); higher = stronger binding; settings: glycan notation: IUPAC condensed, linker removed
# Method in brief: (§1)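 Arrays were curated from the Consortium for Functional Glycomics database, 3228 in total, and kept only where the protein sequence was available. Binding is expressed as a within-array Z-score. This score was averaged across arrays of the same protein sequence at different concentrations or buffers and across linkers, and negative values can be read as non-binding.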
# [2] = biological target: Neu5Gc(b2-6)Gal(b1-4)GlcNAc; experiment: as above; settings: glycan notation: IUPAC condensed, linker removed
# Method in brief: as §1
binder,measurement,setting,value
B1,glycan array binding signal (z-score),[1],-0.174
same,glycan array binding signal (z-score),[2],-0.162

# Source: the supplement of paper PMC8728848
